# This is one part of the list.
# B1: GS7807H-bfa-490-18-490 (Bacteroides fragilis) (protein)
# chain: GNLEEMNIDPDNATQTHPKLLLTQICMNAFKRGTDGMYATKKVIQADGESADQYYKWTRGSFGYYDNLRNVQKMGEEAERVNAPVYTALTKFFRAYYFYELTLRFGDIPYSQALKGEKEEIYTPEYDAQEDVFAGILQELREADEILANDASVIDGDIIYNGNSTQWRKLINSFRLKVLMTLSNHTTVGNINIASEFKNIATNSPLMNSLADNGQLVYLDQQGNRYPQFNAQWSGYYMDDTFIQRMRERRDPRLFIFSAQTNKGKTEGKPIDDFSSYEGGDPAAPYSDAIIKVSEGTISPINDRFRTDPIVEPTMLMGYAELQQILAEAVVRGWISGNAQTYYEKGIRASFSFYETHAKDYAGYLNENAVAQYLKEPLVDFTQASGTEEQIERIIMQKYLVTFYQGNWDSFYEQLRTGYPDFRRPAGTEIPKRWMYPQGEYDNNGTNVETAITRQFGAGNDKINQATWWQKKS
# Key:
# Assay in all cases: glycan array binding signal (z-score within array); higher = stronger binding
# Details in all cases: glycan notation: IUPAC condensed, linker removed
# Neu5Ac(a2-3)GalNAc = target: Neu5Ac(a2-3)GalNAc
# Method in brief: (§1)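 Negative Z-scores can be read as non-binding. The Z-score is calculated within each array and then averaged across arrays of one protein sequence at different concentrations or buffers and across linkers. Arrays, 3228 in all, were curated from the Consortium for Functional Glycomics database and kept only where the protein sequence was available.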
# [1] = target: Neu5Ac(a2-3)GalNAc(b1-4)GlcNAc
# Method in brief: as §1
# [2] = target: Neu5Ac(a2-3)[GalNAc(b1-4)]Gal(b1-4)Glc
# Method in brief: as §1
# [3] = target: Neu5Ac(a2-3)[GalNAc(b1-4)]Gal(b1-4)GlcNAc
# Method in brief: as §1
# [4] = target: Neu5Ac(a2-3)[GalNAc(b1-4)]Gal(b1-4)GlcNAc(b1-3)GalNAc
# Method in brief: as §1
# [5] = target: Neu5Ac(a2-3)[Neu5Ac(a2-6)]GalNAc
# Method in brief: as §1
# Neu5Ac(a2-6)Gal = target: Neu5Ac(a2-6)Gal
# Method in brief: as §1
# [6] = target: Neu5Ac(a2-6)Gal(b1-3)GlcNAc(b1-3)[Gal(b1-4)GlcNAc(b1-6)]Gal(b1-4)Glc
# Method in brief: as §1
# Neu5Ac(a2-6)Gal(b1-4)Glc = target: Neu5Ac(a2-6)Gal(b1-4)Glc
# Method in brief: as §1
# [7] = target: Neu5Ac(a2-6)Gal(b1-4)GlcNAc
# Method in brief: as §1
# [8] = target: Neu5Ac(a2-6)Gal(b1-4)GlcNAc(b1-2)Man
# Method in brief: as §1
# [9] = target: Neu5Ac(a2-6)Gal(b1-4)GlcNAc(b1-2)Man(a1-3)Man(b1-4)GlcNAc(b1-4)GlcNAc
# Method in brief: as §1
# [10] = target: Neu5Ac(a2-6)Gal(b1-4)GlcNAc(b1-2)Man(a1-3)[Gal(b1-4)GlcNAc(b1-2)Man(a1-6)]Man(b1-4)GlcNAc(b1-4)GlcNAc
# Method in brief: as §1
# [11] = target: Neu5Ac(a2-6)Gal(b1-4)GlcNAc(b1-2)Man(a1-3)[GlcNAc(b1-2)Man(a1-6)]Man(b1-4)GlcNAc(b1-4)GlcNAc
# Method in brief: as §1
# [12] = target: Neu5Ac(a2-6)Gal(b1-4)GlcNAc(b1-2)Man(a1-3)[GlcNAc(b1-4)][Neu5Ac(a2-6)Gal(b1-4)GlcNAc(b1-2)Man(a1-6)]Man(b1-4)GlcNAc(b1-4)GlcNAc
# Method in brief: as §1
# [13] = target: Neu5Ac(a2-6)Gal(b1-4)GlcNAc(b1-2)Man(a1-3)[Man(a1-6)]Man(b1-4)GlcNAc(b1-4)GlcNAc
# Method in brief: as §1
# [14] = target: Neu5Ac(a2-6)Gal(b1-4)GlcNAc(b1-2)Man(a1-3)[Neu5Ac(a2-3)Gal(b1-4)GlcNAc(b1-2)Man(a1-6)]Man(b1-4)GlcNAc(b1-4)GlcNAc
# Method in brief: as §1
# [15] = target: Neu5Ac(a2-6)Gal(b1-4)GlcNAc(b1-2)Man(a1-3)[Neu5Ac(a2-6)Gal(b1-4)GlcNAc(b1-2)Man(a1-6)]Man(b1-4)GlcNAc(b1-4)GlcNAc
# Method in brief: as §1
# [16] = target: Neu5Ac(a2-6)Gal(b1-4)GlcNAc(b1-2)Man(a1-3)[Neu5Ac(a2-6)Gal(b1-4)GlcNAc(b1-2)Man(a1-6)]Man(b1-4)GlcNAc(b1-4)[Fuc(a1-6)]GlcNAc
# Method in brief: as §1
# [17] = target: Neu5Ac(a2-6)Gal(b1-4)GlcNAc(b1-2)Man(a1-6)Man(b1-4)GlcNAc(b1-4)GlcNAc
# Method in brief: as §1
# [18] = target: Neu5Ac(a2-6)Gal(b1-4)GlcNAc(b1-2)Man(a1-6)[Gal(b1-4)GlcNAc(b1-2)Man(a1-3)]Man(b1-4)GlcNAc(b1-4)GlcNAc
# Method in brief: as §1
# [19] = target: Neu5Ac(a2-6)Gal(b1-4)GlcNAc(b1-2)Man(a1-6)[GlcNAc(b1-2)Man(a1-3)]Man(b1-4)GlcNAc(b1-4)GlcNAc
# Method in brief: as §1
# [20] = target: Neu5Ac(a2-6)Gal(b1-4)GlcNAc(b1-2)Man(a1-6)[Man(a1-3)]Man(b1-4)GlcNAc(b1-4)GlcNAc
# Method in brief: as §1
# [21] = target: Neu5Ac(a2-6)Gal(b1-4)GlcNAc(b1-2)[Neu5Ac(a2-6)Gal(b1-4)GlcNAc(b1-4)]Man(a1-3)[GlcNAc(b1-4)][Neu5Ac(a2-6)Gal(b1-4)GlcNAc(b1-2)[Neu5Ac(a2-6)Gal(b1-4)GlcNAc(b1-6)]Man(a1-6)]Man(b1-4)GlcNAc(b1-4)GlcNAc
# Method in brief: as §1
# [22] = target: Neu5Ac(a2-6)Gal(b1-4)GlcNAc(b1-2)[Neu5Ac(a2-6)Gal(b1-4)GlcNAc(b1-4)]Man(a1-3)[GlcNAc(b1-4)][Neu5Ac(a2-6)Gal(b1-4)GlcNAc(b1-4)Man(a1-6)]Man(b1-4)GlcNAc(b1-4)GlcNAc
# Method in brief: as §1
# [23] = target: Neu5Ac(a2-6)Gal(b1-4)GlcNAc(b1-2)[Neu5Ac(a2-6)Gal(b1-4)GlcNAc(b1-6)]Man(a1-6)[Neu5Ac(a2-6)Gal(b1-4)GlcNAc(b1-2)Man(a1-3)][GlcNAc(b1-4)]Man(b1-4)GlcNAc(b1-4)GlcNAc
# Method in brief: as §1
# [24] = target: Neu5Ac(a2-6)Gal(b1-4)GlcNAc(b1-3)Gal(b1-3)GlcNAc
# Method in brief: as §1
# [25] = target: Neu5Ac(a2-6)Gal(b1-4)GlcNAc(b1-3)Gal(b1-4)GlcNAc
# Method in brief: as §1
# [26] = target: Neu5Ac(a2-6)Gal(b1-4)GlcNAc(b1-3)Gal(b1-4)GlcNAc(b1-2)Man(a1-3)[Neu5Ac(a2-6)Gal(b1-4)GlcNAc(b1-3)Gal(b1-4)GlcNAc(b1-2)Man(a1-6)]GalNAc
# Method in brief: as §1
# [27] = target: Neu5Ac(a2-6)Gal(b1-4)GlcNAc(b1-3)Gal(b1-4)GlcNAc(b1-3)Gal(b1-4)GlcNAc
# Method in brief: as §1
# [28] = target: Neu5Ac(a2-6)Gal(b1-4)GlcNAc(b1-3)Gal(b1-4)GlcNAc(b1-3)Gal(b1-4)GlcNAc(b1-2)Man(a1-3)[Neu5Ac(a2-6)Gal(b1-4)GlcNAc(b1-3)Gal(b1-4)GlcNAc(b1-3)Gal(b1-4)GlcNAc(b1-2)Man(a1-6)]GalNAc
# Method in brief: as §1
# [29] = target: Neu5Ac(a2-6)Gal(b1-4)GlcNAc(b1-3)Gal(b1-4)GlcNAc(b1-3)GalNAc
# Method in brief: as §1
# [30] = target: Neu5Ac(a2-6)Gal(b1-4)GlcNAc(b1-3)Gal(b1-4)GlcNAc(b1-3)[Neu5Ac(a2-6)Gal(b1-4)GlcNAc(b1-3)Gal(b1-4)GlcNAc(b1-6)]GalNAc
# Method in brief: as §1
# [31] = target: Neu5Ac(a2-6)Gal(b1-4)GlcNAc(b1-3)Gal(b1-4)GlcNAc(b1-6)[Gal(b1-3)]GalNAc
# Method in brief: as §1
# [32] = target: Neu5Ac(a2-6)Gal(b1-4)GlcNAc(b1-3)Gal(b1-4)[Fuc(a1-3)]GlcNAc(b1-3)Gal(b1-4)[Fuc(a1-3)]GlcNAc
# Method in brief: as §1
# [33] = target: Neu5Ac(a2-6)Gal(b1-4)GlcNAc(b1-3)GalNAc
# Method in brief: as §1
# [34] = target: Neu5Ac(a2-6)Gal(b1-4)GlcNAc(b1-3)[Neu5Ac(a2-6)Gal(b1-4)GlcNAc(b1-6)]GalNAc
# Method in brief: as §1
binder,measurement,setting,value
B1,glycan array binding signal (z-score),Neu5Ac(a2-3)GalNAc,0.279
same,glycan array binding signal (z-score),[1],-0.486
same,glycan array binding signal (z-score),[2],-0.665
same,glycan array binding signal (z-score),[3],-0.535
same,glycan array binding signal (z-score),[4],-0.159
same,glycan array binding signal (z-score),[5],0.163
same,glycan array binding signal (z-score),Neu5Ac(a2-6)Gal,-0.384
same,glycan array binding signal (z-score),[6],0.078
same,glycan array binding signal (z-score),Neu5Ac(a2-6)Gal(b1-4)Glc,-0.148
same,glycan array binding signal (z-score),[7],-0.748
same,glycan array binding signal (z-score),[8],-0.666
same,glycan array binding signal (z-score),[9],0.128
same,glycan array binding signal (z-score),[10],-0.232
same,glycan array binding signal (z-score),[11],-0.135
same,glycan array binding signal (z-score),[12],-0.169
same,glycan array binding signal (z-score),[13],-0.651
same,glycan array binding signal (z-score),[14],-0.703
same,glycan array binding signal (z-score),[15],-0.162
same,glycan array binding signal (z-score),[16],1.58
same,glycan array binding signal (z-score),[17],-0.25
same,glycan array binding signal (z-score),[18],-0.231
same,glycan array binding signal (z-score),[19],-0.141
same,glycan array binding signal (z-score),[20],-0.287
same,glycan array binding signal (z-score),[21],-0.261
same,glycan array binding signal (z-score),[22],-0.34
same,glycan array binding signal (z-score),[23],0.272
same,glycan array binding signal (z-score),[24],-0.917
same,glycan array binding signal (z-score),[25],-0.872
same,glycan array binding signal (z-score),[26],0.988
same,glycan array binding signal (z-score),[27],-0.063
same,glycan array binding signal (z-score),[28],0.811
same,glycan array binding signal (z-score),[29],0.934
same,glycan array binding signal (z-score),[30],-0.361
same,glycan array binding signal (z-score),[31],0.249
same,glycan array binding signal (z-score),[32],-0.32
same,glycan array binding signal (z-score),[33],-0.454
same,glycan array binding signal (z-score),[34],0.017

# Reference: the supplement of paper PMC8728848
